± gives the standard deviation of the averaged measurements. The list shows a part of the results.

The assay concerns PfAP2-G AP2 domain (GST-tagged). As to the kind of experiment: gcPBM binding intensity (ln(normalized median fluorescence intensity)); higher = stronger DNA binding. The procedure, abridged:
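DNA-binding domains from P. falciparum, fused to GST and produced in E. coli, were put on an Agilent 4 × 180k double-stranded probe array for 1 h in 1× PBS holding 1% milk, 0.2 mg/ml BSA, 0.5% salmon testes DNA and 0.03% Triton X-100. Probes were primer-extended, 36 bp long and drawn from intergenic genomic regions, with negative controls included. After Alexa488 anti-GST antibody detection and a 488 nm scan, binding intensity was set as the highest Masliner-normalised natural-log median intensity across replicate spots of either probe orientation.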
Take “AAAAATTTTCAAGTGTGTACATATTTTCATTTAACA [XGTACX_site6186]”: the “gcPBM binding intensity (ln)” value was determined as 11.4 ± 0.88.
In the case of “AAGAAAATGTATATATGTACATACAATCAAAAGAAG [XGTACX_site3454]” it was 11.3 ± 0.76; in that of “ATTAATAATGAAAAAAAACACACGGTACATTCAAAG [CACACA_site1302]”, 10.7 ± 0.4; in that of “TAAAATAAAAAAGTAGTACACACTTCACGATATTTT [CACACA_site3896]”, 11.6 ± 0.91.
In the case of TTAAAAGTAAGCAAAGTGCATATAACAAAAGTAAAG it was 10.05 ± 0.064.
Then “AATATAAAACTTTAGAGTACTTATCATTAAAATATA [XGTACX_site4509]”, with 11.2 ± 0.76; and “TTCATTTTCATATATTGTACAAAATTTTATAAGGTT [XGTACX_site4522]”, with 10.8 ± 0.45.
“TTGTAAGAAAGACACACACACACATATAAATATGTA [CACACA_site6516]”: the “gcPBM binding intensity (ln)” value came out at 10.1 ± 0.24.
Then “TATTTAAAATAATGTGCAAAAGAATAAATAAATAAA [TGCATGCA_negctrl_site194]”, with 10.1 ± 0.13; and “ATATACACATATACATGTACAAATATATATACACAT [XGTACX_site2986]”, with 11 ± 0.64.
Then “TTACTATTATTATTTTTTATTTTTATTTTATTTATT [TGCATGCA_negctrl_site269]”, with 9.54 ± 0.25; and “CACTAAAAGAAACACACACACACACCCATATATATA [CACACA_site4151]”, with 10.1 ± 0.17.
In the case of “TATATAAGAACTTTTACACACATGAAAATGTAGATA [CACACA_site7711]” it was 9.96 ± 0.22; in that of “TATATATATATATATACACACATACAGATATATATT [CACACA_site4629]”, 10.2 ± 0.52; in that of “TTTATTTATTTTTGTTGTACACTTGTATATATTATT [XGTACX_site6486]”, 11.4 ± 0.8.
As for “ATTTTATATACACTTTGTACTTATTTTATTCTTCTT [XGTACX_site4200]”, the “gcPBM binding intensity (ln)” value was 11.2 ± 0.68.
In the case of “TGTATATAATCGAGTGCACACACAAAAAAAAAGTGA [CACACA_site8417]” it was 10.6 ± 0.33.
Then “TTCATGTCCTATTAATGTACTCTACACACATATAAG [XGTACX_site899]”, with 11.3 ± 0.9; and “AAAAAAAAAAAAAAAACACACACATATATATATATA [CACACA_site8571]”, with 10.2 ± 0.26.
“ATATATATATATAATACACACTAAAGTAACATAATA [CACACA_site5580]”: the “gcPBM binding intensity (ln)” value amounted to 10.2 ± 0.21.
Turning to “TACGGGAAAGATAAGAAACACACGGAAAATTAGACG [CACACA_site1661]”, the “gcPBM binding intensity (ln)” value was determined as 10.21 ± 0.035.
Then “TTTTTTAATACATATGCATGTTCAAGTACGAAAAAA [TGCATGCA_site641]”, with 10.9 ± 0.56; and “TATTAAACTTGACACACACACACACGCATATATAAA [CACACA_site6496]”, with 10.3 ± 0.26; and “TAATAAATATATTGAAGTACTTATAAAAAGCAATAT [XGTACX_site6262]”, with 11.3 ± 0.79.
In the case of “TACGCAACCAAAAGTTGTACTAATTTTTTTTTTTTG [XGTACX_site7432]” it was 11.2 ± 0.62; in that of “ATATATTTTATACATACACACATATAAATATTTTTT [CACACA_site7780]”, 10.065 ± 0.007; in that of “GGAACAAATAATATCACACATATATATATATATATA [CACACA_site5670]”, 9.95 ± 0.42.
For “CCACTTAAAATAAAAAGTACATACAGGTGTTATACA [XGTACX_site8124]”, the “gcPBM binding intensity (ln)” value came out at 11.4 ± 0.82.
In the case of “AAAAAAAAAAATATATTAAAATAAAAAATATTAACA [GTGCAC_negctrl_site13]” it was 9.43 ± 0.13; in that of “TACACCCACCCACATACACACACATACACATATATA [CACACA_site8503]”, 10.3 ± 0.35; in that of “TATATTTATCCATACAAGAAAAAAAAAAAAAAAATA [CACACA_negctrl_site1328]”, 9.76 ± 0.29.
In the case of “TAATGAGGAAATACAGCACACGTTATTACACTTTTC [CACACA_site5399]”, the “gcPBM binding intensity (ln)” value stood at 10.05 ± 0.085.
For the sequence “AAATTGGTTCATCAATGTACATGTAAAATAAATCAA [XGTACX_site4795]”, the “gcPBM binding intensity (ln)” value came out at 11.1 ± 0.63.
With “TATTTGATCTAAAGAGCATGCAAAAACGAACAAGAT [TGCATGCA_site136]”, the “gcPBM binding intensity (ln)” value worked out at 10.3 ± 0.26.
In the case of “ATATCGTTATTTTTATGTACTAAAATATTTAATTAT [XGTACX_site3516]” it was 11.2 ± 0.73; in that of “CACATATAAATATTAACACACATAATGAATTATATA [CACACA_site2741]”, 9.915 ± 0.035; in that of ATATATAAAAATTAGGTGCATTAAATTAAAATATAT, 10 ± 0.26.
On to “CAAATAAAAACAAAACGTACGAATAAATTATTGTTA [XGTACX_site5136]”, for which the “gcPBM binding intensity (ln)” value is 10.9 ± 0.42.
In the case of AGCATATTATTTTAGGTGCACTTGAAATGTGTTAAC it was 10.3 ± 0.23; in that of “TTTAAATAAAATATTACACACTTAGAAAGATATATA [CACACA_site7684]”, 9.88 ± 0.028; in that of “TTTTTTTTTTATTGTACATGCAAAAAATTCCACACA [TGCATGCA_site279]”, 11.1 ± 0.6.
In the case of “TTTATATAAATTTTTTGTACACAAGTAAAAACGCGT [XGTACX_site2459]” it was 11.2 ± 0.64; in that of “ACACAAATAAATATAACATATATATTATATTATATT [CACACA_negctrl_site710]”, 9.86 ± 0.13; in that of “CAAACAAACAGACACACACACACACCCAAAAATGAT [CACACA_site2430]”, 10.1 ± 0.12.
As for “ATAAAATATATATATATAAAAATAAATACATAAATA [GTGCAC_negctrl_site157]”, the “gcPBM binding intensity (ln)” value amounted to 9.805 ± 0.064.

The values are drawn from the supplement of paper PMC11417369.
